According to PubChem BioAssay AID588579 (National Center for Advancing Translational Sciences (NCATS), 2011):
Among all 400,000 compounds or so, about 2,200 (0.55%) were called active. This list was built around the results that the source calls inconclusive (neither active nor inactive); the mix of calls is not that of the screen. Calls follow the shape of the dose curve; as a rule, active = well fitted inhibition curve with a large enough effect; inconclusive = small, poorly fitted or top-dose-only effect, or another doubt; inactive = no such curve, though single readings can be large or run the other way. Where the call is inconclusive, the potency comes from a doubtful curve fit. A structure can be active in one record and inactive in another.

Biological target: DNA polymerase kappa (Homo sapiens) (UniProt Q9UBT6)
Chain of UniProt Q9UBT6 (Q9UBT6 whole entry, looked up): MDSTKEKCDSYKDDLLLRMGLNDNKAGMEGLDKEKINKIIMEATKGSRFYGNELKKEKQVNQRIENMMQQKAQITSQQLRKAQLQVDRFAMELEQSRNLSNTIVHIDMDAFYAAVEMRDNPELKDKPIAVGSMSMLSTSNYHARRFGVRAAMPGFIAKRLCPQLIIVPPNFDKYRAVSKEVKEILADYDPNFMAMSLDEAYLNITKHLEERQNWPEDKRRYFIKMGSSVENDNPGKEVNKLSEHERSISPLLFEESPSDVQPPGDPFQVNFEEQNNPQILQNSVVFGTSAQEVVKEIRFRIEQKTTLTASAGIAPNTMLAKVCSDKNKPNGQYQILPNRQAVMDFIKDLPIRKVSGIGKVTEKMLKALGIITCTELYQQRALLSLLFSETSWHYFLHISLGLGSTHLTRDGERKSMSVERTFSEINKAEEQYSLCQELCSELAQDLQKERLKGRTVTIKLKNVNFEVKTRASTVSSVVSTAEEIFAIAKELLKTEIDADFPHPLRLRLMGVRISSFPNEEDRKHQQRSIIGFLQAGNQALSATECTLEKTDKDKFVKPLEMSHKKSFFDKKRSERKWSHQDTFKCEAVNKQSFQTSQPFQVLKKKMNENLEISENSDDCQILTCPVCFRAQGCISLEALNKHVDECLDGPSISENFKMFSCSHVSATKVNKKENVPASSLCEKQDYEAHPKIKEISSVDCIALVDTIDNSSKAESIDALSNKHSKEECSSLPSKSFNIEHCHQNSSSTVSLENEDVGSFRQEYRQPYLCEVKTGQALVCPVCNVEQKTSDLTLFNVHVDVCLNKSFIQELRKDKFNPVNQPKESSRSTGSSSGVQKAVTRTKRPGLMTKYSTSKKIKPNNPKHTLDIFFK
Assay: qHTS for Inhibitors of Polymerase Kappa
Conditions: purified Pol kappa, fluorescent DNA synthesis assay, 10 min; series mostly up to 107 µM
Method in brief: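 Pol kappa 10 nM + cpd, 15 min RT; start w/ substrate 50 nM final; fluorescence kinetic read, 0 and 10 min. Neg ctrl: buffer, no enzyme.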
Potency is read from the fitted curve at half-maximal effect; tags tell the direction and shape of the fitted curve.

Potency, inconclusive:
CCC(C)NC(=O)COC(=O)c1oc2ccccc2c1CSc1ccc(Cl)cc1 (stereo not drawn) 89.1 µM [inhibitor, single point]
Cc1ccc(-c2c(C(=O)Nc3ccccc3C)c(C)[nH]c(=S)c2C#N)o1 89.1 µM [inhibitor, partial curve, poor fit]
COc1ccc(CCN2CC(C#N)=C3c4cc(OC)c(OC)cc4CCN3C2)cc1OC 63.1 µM [inhibitor, partial curve, poor fit]
O=C(Cc1csc(N2CCOCC2)n1)N/N=C/c1ccc(O)c(O)c1O 8.91 µM [inhibitor, full curve, poor fit]
COC(=O)c1ccccc1NC(=O)C1CC=CCC1C(=O)O (stereo not drawn) 89.1 µM [inhibitor, partial curve, poor fit]
O=C1NN(c2ccccc2)C(=O)/C1=C/c1ccc(-c2ccc(Cl)c(C(=O)O)c2)o1 56.2 µM [inhibitor, partial curve, poor fit]
Cc1noc(C)c1-c1ccc2ncnc(NCc3cccs3)c2c1 28.2 µM [inhibitor, single point]
CC1N(C)c2cc(NC(=O)c3ccco3)ccc2C1(C)C (stereo not drawn) 31.6 µM [inhibitor, single point]
O=C(O)c1ccc(COc2c(F)c(F)c(F)c(F)c2F)o1 79.4 µM [inhibitor, single point]
CCOC(=O)N1CCC(NC(=O)CCS(=O)(=O)c2ccc3c(c2)CCN3C(=O)CC)CC1 89.1 µM [inhibitor, partial curve, poor fit]
NC(=O)c1c(NC(=O)CN2CCN(S(=O)(=O)c3ccccc3)CC2)sc2c1CCC2 89.1 µM [inhibitor, single point]
O=C(CSc1cccc(C(F)(F)F)c1)NC(=O)NCc1ccco1 79.4 µM [inhibitor, partial curve, poor fit]
Cc1cc(C(=O)CSc2nnc(-c3ccccc3)n2-c2ccccc2)c(C)n1-c1ncn[nH]1 56.2 µM [inhibitor, partial curve, poor fit]
CC1Sc2ccc(S(=O)(=O)CCC(=O)NCc3ccccc3)cc2NC1=O (stereo not drawn) 100 µM [inhibitor, partial curve, poor fit]
COc1ccc(CNC(=O)C(=O)NCc2ccncc2)cc1 1.12 µM [inhibitor, full curve, poor fit]
CCOC(=O)c1c(NC(=O)C2c3ccccc3Oc3ccccc32)sc2c1CCC(CC)C2 (stereo not drawn) 89.1 µM [inhibitor, single point]
O=C(COc1cccc(F)c1)NNC(=O)c1cccc(-n2cccc2)c1 89.1 µM [inhibitor, partial curve, poor fit]
COc1ccc2c(=O)c3c(=O)n(-c4ccccc4)c(-c4ccco4)nc3oc2c1 79.4 µM [inhibitor, single point]
CCc1ccccc1NC(=O)c1ccc(Cn2nc(N3CCN(c4ccccc4)CC3)ccc2=O)o1 100 µM [inhibitor, single point]
Cn1ncc(Br)c1C(=O)N/N=C/c1ccc(OS(=O)(=O)c2ccccc2)cc1 39.8 µM [inhibitor, partial curve, poor fit]
CCN(CCO)c1nc(SC)nc2c1sc1nc(-c3ccco3)c3c(c12)CCC3 79.4 µM [inhibitor, partial curve, poor fit]

Potency, active:
Cn1c(SCC(=O)c2ccc(O)c(O)c2)nnc1-c1cccs1 79.4 µM
C[C@H](C(=O)O)c1cccc(C(=O)c2ccccc2)c1 11.2 µM
O=C(O)c1ccc(NS(=O)(=O)c2ccc3c(c2)C2C=CCC2C(c2ccccc2F)N3)cc1 (stereo not drawn) 35.5 µM
Cc1c(Br)c(=O)oc2c(Br)c(O)c(O)cc12 22.4 µM
CC(=O)c1ccccc1NS(=O)(=O)c1cccc2nsnc12 79.4 µM
CC(=O)c1ccc(NC(=O)CSc2nnc(-c3ccco3)c(-c3ccco3)n2)cc1 14.1 µM
CCc1ccc(NC(=O)C2CCCN2S(=O)(=O)c2ccc3nc(-c4ccccc4)[nH]c3c2)cc1 (stereo not drawn) 89.1 µM
CCC(C)Nc1ccc(NC(C)CC)cc1 (stereo not drawn) 2.51 µM
NS(=O)(=O)c1ccc(-c2ccc(/C=C3\NC(=S)NC3=O)o2)cc1 50.1 µM

Potency, inactive:
COc1ccc(-c2cc(-c3ccc(O)cc3)nc(N)c2C#N)cc1OC
Cc1cccc(NS(=O)(=O)c2cc(C(=O)NCc3ccccn3)ccc2C)c1
COc1ccc(-c2nc3c(n2O)CCc2c-3no[n+]2[O-])cc1
COc1ccccc1CNC(=O)Cc1c(C)c2cc3c(C)coc3c(C)c2oc1=O
Oc1cncc(Cc2ccccc2)c1
O=C(c1cccs1)N1CCCc2cc(NS(=O)(=O)c3cc(F)ccc3F)ccc21
COc1n[nH]c(C(=O)Nc2nc3ccccc3s2)c1[N+](=O)[O-]
Cc1ccc(CNc2ccc3nnc(-c4ccccc4)n3n2)cc1
CCc1ccc2nc(N(CCN(C)C)C(=O)c3ccc4ncsc4c3)sc2c1
COc1cc2c(cc1NC(=O)c1ccccc1C)n(C)c(=O)n2C
CCOc1ccccc1N1CCN(C(=O)c2cc(-c3cccnc3)nc3c(Cl)cccc23)CC1
N#CN=c1snc(-c2ccccc2Cl)n1-c1ccccc1Cl
Cc1ccccc1NC(=O)CC1NCCNC1=O (stereo not drawn)
Cc1ccc2c(c1)-c1ccccc1S(=O)(=O)N2
CCCCn1c(N)c(-c2nc3ccccc3o2)c2c([N+](=O)[O-])nn(CC)c(=O)c21
Cc1cccc(C(=O)OCC(=O)Nc2nccs2)c1
COC(=O)c1ccc2c(=O)n(CCCCCC(=O)N3CCN(c4cc(C)ccc4C)CC3)c(=O)[nH]c2c1
Cc1ccc(/C=C/C(=O)N2CCC(c3nc4ccccc4o3)CC2)cc1
